The structures appear in SMILES notation. About 1,200 (2.5%) of roughly 48,000 compounds were called active. Another 2% or so got no clear call; they are omitted.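 Rule for the calls: active = activation of at least 60% and not above a set upper limit (about 1 call in 100 departs from these limits); inconclusive = activation of 40% to 60%, or above that upper limit; inactive = activation under 40%.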 The list shows a part of the results.

Chain of UniProt O75388 (O75388 whole entry, looked up, the tested form may be a part): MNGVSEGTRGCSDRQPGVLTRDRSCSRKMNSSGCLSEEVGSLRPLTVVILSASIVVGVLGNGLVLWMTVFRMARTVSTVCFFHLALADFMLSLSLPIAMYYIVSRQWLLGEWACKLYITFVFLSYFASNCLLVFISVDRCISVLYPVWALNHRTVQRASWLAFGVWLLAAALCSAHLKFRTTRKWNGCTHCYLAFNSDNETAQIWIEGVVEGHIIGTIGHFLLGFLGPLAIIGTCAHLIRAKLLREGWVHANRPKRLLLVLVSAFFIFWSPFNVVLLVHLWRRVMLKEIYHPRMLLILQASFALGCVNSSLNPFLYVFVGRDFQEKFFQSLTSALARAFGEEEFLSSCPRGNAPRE

This test deals with Probable G-protein coupled receptor 32 (Homo sapiens) (UniProt O75388). Nature of the test: qHTS for Agonists of Human Resolvin D1 Receptor DRV1. Note: 0% is about no effect. The note with it: CHO-K1 GPR32 beta-arrestin PathHunter luminescence, 90 min; at 76.9 µM; stronger effect = higher value; zero percent set by DMSO-only wells. The procedure, abridged:
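GPR32 activation in stably transfected CHO-K1 cells, detected as beta-arrestin recruitment by enzyme-fragment complementation. Compound exposure: 90 min, 37 °C.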
On to `CCCN(CCC)c1cc(C)nc2nc(-c3ccc(C(C)(C)C)cc3)nn12`, for which the activation is inactive: -13.2%.

On to `Cc1ccc(C)c(N2CCN(C3(c4ccccc4)C(=O)c4ccccc4C3=O)CC2)c1`, for which the activation was inactive: -28.8%.

For `CCOCCCNC(=O)Cn1ncc2c([nH]c3ccc(C)cc32)c1=O`, the activation is inactive: -2.6%.

For `COCCN(Cc1ccc(C)c(Br)c1)S(=O)(=O)c1ccc2[nH]c(=O)ccc2c1`, the activation is inactive: -9.43%.

On to `CC(=O)N1CCc2cc(Br)cc(S(=O)(=O)CCC(=O)N3CCN(c4cccc(C)c4C)CC3)c21`, for which the activation was inactive: 1.74%.

Regarding `CCOC(=O)c1ccc(NC(=O)c2cc(=O)c3ccc(C)c(C)c3o2)cc1`, the activation is inactive: -13.5%.

Turning to `NCC(=O)CCC(=O)O`, the activation was inactive: 10.5%.

For `CCn1c(=O)c2sccc2n2c(CCCC(=O)Nc3ccc(Oc4ccccc4)cc3)nnc12`, the activation was inactive: 4.56%.

As for `O=C(Nc1ccc(Br)cc1)c1cc(S(=O)(=O)N2CCc3ccccc32)ccc1F`, the activation is inactive: -13.2%.

Regarding `CCOc1ccccc1CNC(=O)CN1C(=O)c2cccnc2Oc2ccc(C)cc21`, the activation is inactive: -13.2%.

For `CCN1C(=O)C2(c3ccccc31)c1c(oc3ccccc3c1=O)C(=O)N2CCOC` (centres undefined), the activation is inactive: -15.7%.

Take `COc1ccc(-c2noc(CC(=O)N(C)c3cc(Cl)c(OC)cc3OC)n2)cc1`: the activation is inactive: -12.5%.

As for `CCCCN(C)C(=O)c1ccc2c(c1)NC(=O)C(CC(C)C)N2` (centres undefined), the activation was inactive: -26.9%.

As for `COc1ccc(OC)c(NC(=O)N2CCC3(CC2)Oc2ccccc2C(=O)N3Cc2ccccc2F)c1`, the activation was inactive: -20.8%.

For the compound `Cc1ccc(NC(=O)c2nc(S(C)(=O)=O)ncc2N(Cc2ccco2)Cc2ccco2)cc1`, the activation was inactive: -27.6%.

Regarding `Cc1cc(C)cc(OCC(=O)N(Cc2ccco2)Cc2ccccc2Cl)c1`, the activation was inactive: -21.4%.

Regarding `COc1ccc(NC(=O)CN2C(=O)C(=O)c3ccccc32)c(OC)c1`, the activation was inactive: -55.9%.

As to `Cc1c(C(=O)Nc2ccccc2F)sc2nc3n(c(=O)c12)CCC3`, the activation is inactive: 0.727%.

On to `CN(Cc1ccccc1)c1nc2c(S(=O)(=O)c3ccccc3)nnn2c2ccsc12`, for which the activation is inactive: -6.48%.

With `Cc1ccc(S(=O)(=O)c2nnn3c2nc(NC2CCCCC2)c2sccc23)cc1C`, the activation was inactive: -25.4%.

On to `Cc1ccc(OCCSc2nc3ccccc3n2CCC(=O)O)cc1`, for which the activation is inactive: -10.1%.

Consider `Cc1ccc(-c2nc(-c3cccs3)c(-c3cccs3)[nH]2)cc1`, for which the activation is inactive: -12%.

For the compound `COc1ccc(C)cc1-n1c(SCC(=O)NCc2ccco2)nc2c([nH]c3ccccc32)c1=O`, the activation was inactive: -23.4%.

As for `COc1ccc(CNC(=O)CCc2c(C)nc3c4cccnc4nn3c2C)cc1`, the activation was inactive: -1.73%.

For the compound `COc1ccc(CC(=O)Nc2nnc3n2CCS3)cc1OC`, the activation was inactive: -1.68%.

Consider `CCc1ccccc1NC(=O)Cn1nnc(C(=O)NCc2cccc(OC)c2)c1N`, for which the activation is inactive: -4.06%.

For the compound `Cc1ccc(NC(=O)Cn2c(=O)n(CC(=O)NCCc3ccccc3)c(=O)c3ccccc32)cc1`, the activation is inactive: -3.56%.

As to `CC1CCc2nc3ncn(Cc4cccc(F)c4)c(=O)c3cc2C1` (centres undefined), the activation was inactive: -12.9%.

On to `CNC(=O)C1CCC(Cn2c(=O)c3sccc3n(CC(=O)Nc3ccccc3)c2=O)CC1` (centres undefined), for which the activation was inactive: -1.38%.

For `O=C(Nc1ncc(Cc2ccccc2Cl)s1)c1ccc2c(c1)CC(c1ccccc1)OC2=O` (centres undefined), the activation was inactive: 1.91%.

Consider `CCCCN(CC)CCCNC(=O)c1nn(-c2ccc(OC)cc2)c(=O)c2c1c1ccccc1n2C`, for which the activation was inactive: -2.83%.

In the case of `Cc1ccc(CCNC(=O)CCCn2c(=O)c3cccn3c3ccc(F)cc32)cc1`, the activation was inactive: -5.91%.

For the compound `CCCCN(CC)CCCNC(=O)c1sc2nc3n(c(=O)c2c1C)CCCCC3`, the activation is inactive: -1.18%.

On to `COCCNC(=O)c1cc(-c2cccc(Cl)c2)on1`, for which the activation is inactive: -2.41%.

`O=C(CN1C(=O)COc2ccc(Cl)cc21)Nc1cccc(C(=O)O)c1`: the activation was inactive: 45.4%.

In the case of `Cc1ccc(C)c(N2CCN(C(=O)NCc3noc4ccccc34)CC2)c1`, the activation was inactive: -5.43%.

As for `COC(=O)c1ccc2c(c1)N(CC(=O)Nc1ccc(C)c(C)c1)C(=O)c1ccccc1S2`, the activation is inactive: -13.7%.

Consider `CCS(=O)(=O)N1CCc2cc(C(=O)Nc3cc(C)cc(C)c3)ccc21`, for which the activation is inactive: -6.03%.

In the case of `Cc1cc2oc(C(=O)Nc3sc4c(c3C(=O)NCC3CCCO3)CCCC4)cc(=O)c2cc1C` (centres undefined), the activation is inactive: -2.41%.

Regarding `Cc1ccc2nc(Nc3cccc(C(F)(F)F)c3)c3nnnn3c2c1`, the activation is inactive: -10.2%.

With `Cn1c(=O)c2c(-c3ccc(Cl)cc3)ccnc2n(C)c1=O`, the activation was inactive: 25.2%.

In the case of `O=S(=O)(NCC(c1ccco1)N1CCN(c2ccc(F)cc2)CC1)c1cc(F)ccc1F` (centres undefined), the activation was inactive: -26.3%.

For the compound `CCc1c(C)sc(NC(=O)c2cc(-c3ccc(OC)c(OC)c3)on2)c1C#N`, the activation is inactive: -9.82%.

For the compound `COc1ccc(OC)c(CCNc2nc3cc(OC)c(OC)cc3c3nc(-c4cccnc4)nn23)c1`, the activation is inactive: -1.46%.

Turning to `CCCCN(CC)CCNC(=O)CN1C(=O)COc2ccc(S(=O)(=O)N3CCOCC3)cc21`, the activation is inactive: -7.78%.

On to `COc1ccc(S(=O)(=O)N2CCCCC2)cc1C(=O)NC1CCS(=O)(=O)C1` (centres undefined), for which the activation was inactive: -12.9%.

With `CCOc1ccccc1CNC(=O)CN1C(=O)c2cccnc2Oc2ccc(Cl)cc21`, the activation is inactive: 0.166%.

For `CCS(=O)(=O)N1CCC2(CC1)OC(=O)C(C)=C2C(=O)NCc1ccc(OC)c(OC)c1`, the activation was inactive: 7.23%.

As to `Cc1ccc(C(=O)c2cn(Cc3ccccc3)c3c(F)cc(F)cc3c2=O)cc1`, the activation is inactive: 39%.

Turning to `O=C(Nc1ccccc1)c1ccc(Cl)c(S(=O)(=O)Nc2ccccc2)c1`, the activation was active: 91.4%.

Turning to `CCC1Oc2ccccc2N(CC(=O)NCc2ccccc2)C1=O` (centres undefined), the activation was inactive: -15.8%.

For `Cc1cc(Nc2cccc(Cl)c2)nc2ccc(NC(=O)Cc3c(F)cccc3Cl)cc12`, the activation is inactive: 6.4%.

For the compound `COc1ccc(N2CCN(C(=O)c3cn(C)c4ccc(S(=O)(=O)N5CCOCC5)cc4c3=O)CC2)cc1`, the activation was inactive: -3.38%.

With `COc1ccc2nc(N(Cc3cccnc3)C(=O)c3ccc(Cl)cc3)sc2c1`, the activation was inactive: -13.9%.

In the case of `Cn1c(=O)c(=O)n(C)c2cc(N3CCCC3)c(NC(=O)c3ccccc3Cl)cc21`, the activation was inactive: 1.25%.

Turning to `CCN(CC)c1ccc2nc3c(=O)n(C)c(=O)n(C)c3nc2c1`, the activation is inactive: -14.1%.

For `Cc1nn(CC(=O)N2CCN(c3ccccc3F)CC2)c(=O)c2cccn12`, the activation was inactive: 7.12%.

On to `CC(C)c1ccc(NC(=O)[C@H]2O[C@@H]3OC(C)(C)O[C@@H]3[C@H]3OC(C)(C)O[C@H]32)cc1`, for which the activation is inactive: 36.7%.

Regarding `Cc1cc(OC(C)C(=O)N(Cc2ccco2)Cc2ccco2)cc(C)c1Cl` (centres undefined), the activation is inactive: 9.06%.

Take `CCN(Cc1ccccc1)C(=O)Cn1c(=O)cc(C)c2c(C)nn(-c3cccc(F)c3)c21`: the activation was inactive: 0.159%.

On to `O=C(CSc1oc(-c2ccc(F)cc2)nc1S(=O)(=O)c1ccccc1)c1ccc(Cl)cc1`, for which the activation was inactive: -18.8%.

In the case of `CC(C)c1nn2c(=O)cc(COC(=O)c3cccc(NC(=O)CCc4ccccc4)c3)nc2s1`, the activation was inactive: -14.5%.

For the compound `CCn1nc(C)c(CCN(C)C(=O)Nc2cc(Cl)c(OC)cc2OC)c1C`, the activation was inactive: 2.88%.

In the case of `CCc1ccc2occ(CC(=O)Nc3nnc(SC)s3)c2c1`, the activation is inactive: 3.72%.

Turning to `CC(C)c1ccc(NC(=O)C2CCC(CNS(=O)(=O)c3ccc4c(c3)CCCC(=O)N4)CC2)cc1` (centres undefined), the activation is inactive: 1.25%.

As for `COc1ccc(CNC(=O)CCn2c(=O)c3cccn3c3ccc(F)cc32)cc1OC`, the activation was inactive: -4.36%.

Take `CCN1C(=O)c2ccccc2S(=O)(=O)c2ccc(C(=O)NCc3ccc(C)cc3)cc21`: the activation is inactive: -17.1%.

For `CCOc1ccc(-c2nnc(SCC(=O)NC3CCCCC3)nc2-c2ccc(OCC)c(OC)c2)cc1OC`, the activation is inactive: -14.8%.

With `Cn1c(=O)c2c(-c3ccccc3)n(-c3cccc(C#N)c3)cc2n(C)c1=O`, the activation was inactive: -4.45%.

Consider `O=C(O)c1ccc(Nc2ncnc3scc(-c4ccccc4)c23)cc1`, for which the activation was inactive: 2.12%.

Regarding `CCOC(=O)c1[nH]c(C)c(CCC(=O)N2CCN(c3ccc(Cl)cc3)CC2)c1C`, the activation was inactive: 2.43%.

As to `CCS(=O)(=O)c1nc(S(=O)(=O)c2ccc(Cl)cc2)c(NCc2ccc(Cl)cc2)s1`, the activation was inactive: 6.02%.

Take `COc1ccc(-c2ccc(=O)n(CC(=O)Nc3ccc(Br)cc3F)n2)cc1`: the activation is inactive: -37.7%.

Turning to `COc1ccc(Cc2c(C)nn(-c3nc(C)c(C(=O)Nc4cccc(C(C)=O)c4)s3)c2C)cc1`, the activation was inactive: -5.48%.

On to `CCc1ccc2nc(N(Cc3cccnc3)C(=O)Cc3ccccc3)sc2c1`, for which the activation was inactive: -34.1%.

For the compound `Cc1cc2c(OCC(CNC(C)(C)C)OC(=O)c3ccccc3)cccc2[nH]1` (centres undefined), the activation was inactive: -5.62%.

Consider `CCC(C(=O)NCc1ccccc1Cl)n1c(=O)c2cccn2c2ccccc21` (centres undefined), for which the activation is inactive: -24.1%.

As for `O=C(NCc1ccccc1)c1c2c(nc3ccccc13)C(=O)N(C1CCCCC1)C2`, the activation is inactive: -11.1%.

Take `CCc1ccccc1N1C(=O)N(Cc2cc(=O)n3ccccc3n2)c2ccccc2S1(=O)=O`: the activation is inactive: -10.7%.

For the compound `COC(=O)c1cc(OC)c(OC)cc1NC(=O)c1ccc2c(c1)CCN2S(C)(=O)=O`, the activation is inactive: -3.65%.

Regarding `Cc1ccc2c(c1)N(C(=O)c1ccc(F)cc1)C(C)(C)CC2(C)c1ccccc1` (centres undefined), the activation was inactive: 9.22%.

In the case of `CCOC(=O)c1ccc(N2C(=O)c3n[nH]c(C)c3C2c2ccc(CC)cc2)cc1` (centres undefined), the activation is inactive: 15.3%.

Turning to `Oc1ccc(C2CNCc3sccc32)cc1O` (centres undefined), the activation is inactive: 5.61%.

For the compound `CCc1ccccc1NC(=O)Cn1nc(C)c2nn(-c3ccc(Cl)cc3)c(C)c2c1=O`, the activation was inactive: -17.4%.

Values taken from PubChem BioAssay AID1346428 (National Center for Advancing Translational Sciences (NCATS), 2018).
